Test results published in PubChem BioAssay AID1671194 (National Center for Advancing Translational Sciences (NCATS), 2021).
Among all 140,000 compounds or so, about 240 (0.17%) were called active. Inconclusive results, whose numbers are uncertain, are shown with a selection of clear calls. Calls come from the whole dose curve; as a rule, active = well fitted inhibition curve with a large enough effect; inconclusive = small, poorly fitted or top-dose-only effect; inactive = no such curve, though single readings can be large or run the other way. Where the call is inconclusive, the potency comes from a doubtful curve fit.

Assay: Primary qHTS assay for inhibitors of alpha-synuclein gene (SNCA) expression; note: nearly all actives have a fitted effect of over 45% in size
Settings: HEK-293 SNCA-luciferase knock-in, luminescence, 24 h; series mostly up to 57.2 µM
Potency is the fitted concentration of half-maximal effect; tags give direction and shape of the fitted curve.

Potency, active:
COc1ccc(Cl)cc1NC(=O)CCS(=O)(=O)c1nc(-c2cccs2)cc(C(F)(F)F)n1 28.2 µM

Potency, inconclusive:
CC(C)(C)OC(=O)N1CCC(c2c(C(=O)N3CCCCC3)cnn2-c2ccc(Cl)cc2)CC1 39.8 µM [inhibitor, single point]
CCOc1cc(C(=O)NCCc2csc3nc(-c4ccc(C)cc4)nn23)cc(OCC)c1OCC 11.2 µM [inhibitor, single point]
O=C(c1ccc(F)cc1F)N1CCCN(c2cc(-c3ccccc3)[nH]n2)CC1 31.6 µM [inhibitor, single point]
COc1ccc(C)cc1NC(=O)C1CN(S(=O)(=O)C2CC2)CC12CCCCC2 (stereo not given) 10 µM [inhibitor, partial curve, poor fit]
CCN(CC)C(=O)c1cc2c(s1)CCC(C(=O)N1CCN(c3ccccn3)CC1)C2 (stereo not given) 25.1 µM [inhibitor, single point]
CCc1cccc(NC(=O)C2CCN(C(=O)c3cnn(-c4ccccc4)c3-n3cccc3)CC2)c1 7.08 µM [inhibitor, single point]
CC1(NC(=O)C2CC2)CN(Cc2nc(-c3ccccc3)cs2)C1 35.5 µM [inhibitor, single point]
CSCCNC(=O)C1CCCN(c2nccc(Nc3ccc(C)cc3)n2)C1 (stereo not given) 12.6 µM [inhibitor, partial curve, poor fit]
CC(C)n1nc(OC(C)(C)C(=O)Nc2ccccn2)c2cc(CN3CCOCC3)ccc21 56.2 µM [inhibitor, single point]
Cc1nn2c(c1-c1ccccc1OCc1ccccc1)N(Cc1cccc(O)c1)CCC2 14.1 µM [inhibitor, partial curve, poor fit]
CCn1cc(C(=O)N2CCN(c3cccc(C(F)(F)F)c3)CC2)c2cc(OC)c(OC)cc2c1=O 39.8 µM [inhibitor, single point]
Cc1cccc([C@H]2C[C@@H](O)[C@@H](O)[C@@H]2NCC(C)(C)O)c1 44.7 µM [inhibitor, single point]
N#Cc1cccc(OCc2nc3c(n2Cc2ccccc2)C(=O)N(Cc2ccccc2F)CCN3)c1 39.8 µM [inhibitor, single point]
CCOC(=O)N1CCc2c(sc(NCc3cccc(F)c3)c2C(=O)Nc2ccccc2OCC)C1 39.8 µM [inhibitor, single point]
Cc1ccc(N2CC(NC(=O)Cc3cccs3)CC2=O)cc1C (stereo not given) 39.8 µM [inhibitor, single point]
CCOc1ccc(-c2nonc2NC(=O)c2oc3ccc(Br)cc3c2C)cc1 39.8 µM [inhibitor, single point]
Cc1c(C(=O)OC2CCCC2)[nH]c2c1C(=O)CC(c1ccc(Cl)cc1)C2 (stereo not given) 2 µM [inhibitor, single point]
Cc1ccc([S+](=O)([O-])NC2CCN(C(=O)c3ccc(-c4ncccc4C#N)cc3)CC2)cc1 7.08 µM [inhibitor, single point]
O=C(c1n[nH]c(=O)c2ccccc12)N1CCCC1c1nc(CCOc2ccc(F)cc2)no1 (stereo not given) 7.94 µM [inhibitor, partial curve, poor fit]
CCOc1cc(-c2nnc(SCC(=O)Nc3ccc(F)c(F)c3)nc2-c2ccc(OC)c(OCC)c2)ccc1OC 2.51 µM [inhibitor, single point]
O=C(c1ccc2ccccc2n1)N1CCC(Cc2nc(-c3ccccc3)n[nH]2)CC1 8.91 µM [inhibitor, single point]
O=C(Nc1ccc(Cl)cc1)N1CCCC(C(=O)N2CCCC(c3nc4ncccc4[nH]3)C2)C1 (stereo not given) 3.98 µM [inhibitor, single point]
O=C1CC2CCN(Cc3ccccc3)CC2CCN1 (stereo not given) 2.51 µM [inhibitor, full curve, poor fit]
O=C(NCC1CCOCC1)C1CC(=O)N(c2n[nH]c3cc(Br)ccc23)C1 (stereo not given) 2.51 µM [inhibitor, partial curve, poor fit]
Cc1cccc(Cn2cc(C(=O)Nc3ccc(F)c(C(F)(F)F)c3)ccc2=O)c1 39.8 µM [inhibitor, single point]
O=C(NCc1ccc(F)cc1)c1ccc2nnc(-c3ccc(OC(F)(F)F)cc3)n2c1 39.8 µM [inhibitor, single point]
O=C(Nc1ccc(F)cc1)c1ccc2oc(-c3ccnc(Cl)c3)nc2c1 39.8 µM [inhibitor, single point]
CCN(C(=O)CN1C(=O)NC2(CCC(C(C)(C)C)CC2)C1=O)c1cccc(C)c1 (stereo not given) 17.8 µM [inhibitor, single point]

Potency, inactive:
COc1ccc2nc([C@H]3CCN(Cc4ccccc4F)C3)[nH]c2c1
COCCN1CCCCCC(O)c2cc(C(=O)NCc3ccc(N4CCC(C)CC4)cc3)ccc21 (stereo not given)
CN(C)c1ccc(CN2CCC(c3nc4ccncc4[nH]3)C2)cc1 (stereo not given)
COc1cc2cc(CN3CCC[C@H]3CO)c(-c3cccc(Cl)c3)nc2cc1OC
Cc1noc(C)c1-c1cc2cc(CO)oc2c(NCc2cccc(F)c2)n1
COC(=O)[C@@H]1Cc2c([nH]c3ccccc23)[C@H]2C[C@@H](NCCNC(C)=O)C[C@@H](c3ccc(C(F)(F)F)cc3)N21
CCS(=O)(=O)NCC1(COc2ccccc2)C[C@@H](O)[C@@H](O)C1 (stereo not given in full)
Cc1cc2ncc(C(=O)NC3CCCCCC3)cn2n1
COc1ccc(-c2cc(N3CCCN(C(=O)c4cccc(Br)c4)CC3)n[nH]2)cc1
CC1(C(=O)NCc2ccncc2)CCc2cnc(NCc3ccccc3)nc21 (stereo not given)
CN1CC2(CCN(CC3CC3)CC2)CC1C(=O)N1CCOCC1 (stereo not given)
